Laboratory results reported in the supplement of paper PMC3334620.
Whole data set: some 33,000 sequences, median “E-score (-0.5 to 0.5)” near -0.016, cut for the highest 2% near 0.31. The list shows a part of the results.

The sequences below were run against Cst6 (UniProt P40535) (assay: PBM E-score (8-mer binding enrichment) (E-score (-0.5 to 0.5)); higher = stronger / more preferred TF binding; most listed sequences are background and not binding sites). Settings: protein concentration: 200 nM; construct: GST-DNA-binding domain.
How it was run: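 Yeast transcription factors, full-length or as DNA-binding domains, were expressed with a GST tag using PURExpress in vitro transcription/translation. At about 100-200 nM they were applied to universal all-10-mer Agilent arrays, double-stranded by primer extension on fresh or once-stripped slides. Fluorescent anti-GST detected bound protein, and masliner normalised the scans. E-scores for ungapped eight-base words, pooled with reverse complements, came from the Universal PBM Analysis Suite.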

Row | Sequence | PBM E-score
1 | GCTTAAGA | 0.0377
2 | AAAGCAAG | 0.0733
3 | AGCTAACG | -0.065
4 | CAATGCTA | 0.0158
5 | CGTTTGCA | 0.119
6 | CCGCTCGC | -0.0359
7 | CAAGGAAC | -0.0573
8 | AGGCCAAA | -0.0952
9 | CTGTCGAA | -0.0752
10 | GCAGGACA | -0.051
11 | CCTCGCTA | -0.158
12 | CTGTTACA | -0.038
13 | ATATAAGA | 0.29
14 | ACCCGTTA | -0.086
15 | AAATAAGA | 0.216
16 | AAGCGCTG | 0.0375
17 | CTCAAGGA | -0.117
18 | TCAGCCGA | 0.0692
19 | ACCCATAG | -0.411
20 | AAGACCTC | -0.32
21 | CAGCTAGA | -0.131
22 | AACGTTTG | 0.00207
23 | CATAGAAC | -0.216
24 | AGATAACA | 0.137
25 | GTGCTCTA | -0.0635

Row | Sequence | PBM E-score
26 | CCCGCGAA | -0.136
27 | ATCGTAAG | 0.0992
28 | AGTAAAAC | 0.023
29 | ACTGCCGC | 0.14
30 | CGTGCATC | -0.118
31 | GAAGATCC | -0.198
32 | CTTCCAAA | 0.0635
33 | CGGAGCTC | -0.359
34 | AACAAATG | 0.176
35 | CCTTTTAC | 0.0801
36 | ACTTAGAT | 0.214
37 | GGACATAC | -0.112
38 | ATGCAGAC | 0.00855
39 | TCAGGCAA | -0.0364
40 | CCCATGAA | -0.00568
41 | AACGCCGT | 0.373
42 | AATCAGCG | 0.172
43 | ACACTGGA | -0.0743
44 | GCTGTATA | -0.0911
45 | AAATTCTC | -0.175
46 | GCATGGGA | -0.206
47 | CGACCTGA | -0.0194
48 | GATCCCAA | -0.0896
49 | CCTATTGC | -0.136
50 | AAATACCT | -0.0674

Row | Sequence | PBM E-score
51 | CCATAACG | 0.219
52 | GAGCCTGA | -0.0725
53 | GGAAAATA | 0.0785
54 | AACGTCTA | -0.105
55 | GAAGGTTA | -0.0813
56 | CCCTTGAG | -0.141
57 | GCCACTGA | -0.0559
58 | ATAACTTC | 0.157
59 | AAGGAGGA | -0.121
60 | CATTTGTC | 0.0906
61 | GTAGAGGA | -0.322
62 | GCCAGAGA | -0.22
63 | CATGAGGG | -0.142
64 | ACCCTCGG | -0.343
65 | CATACTGA | 0.104
66 | GACATACA | 0.292
67 | ACTAACTG | 0.0743
68 | ACTTATCC | 0.0806
69 | AGTTGAGG | -0.14
70 | GCCTGGAC | -0.287
71 | AAGGTTTC | 0.0192
72 | ACCTGCTA | -0.0708
73 | GAGCTTGA | -0.199
74 | CGGAACCC | -0.0911
75 | AGAGAAGG | -0.21

Row | Sequence | PBM E-score
76 | ATTGAATC | -0.013
77 | ATTTCACG | -0.00077
78 | AGACTAAG | -0.0239
79 | ATGGGCGA | -0.215
80 | ACTATGAA | 0.107
81 | CGCAGCTC | -0.0835
82 | GTCCGCAA | 0.017
83 | ATGGCAGG | -0.213
84 | GGAGTCAC | -0.112
85 | GCCTTTCA | 0.0677
86 | AGACAAGG | -0.181
87 | CGGCAGCA | -0.176
88 | TCGTGGCA | 0.062
89 | CGACTTCC | -0.0303
90 | GCGCTTAA | -0.00912
91 | GCGTCTAA | -0.0107
92 | AAATACTC | 0.109
93 | AGGTCGCG | -0.123
94 | ACCTACCA | -0.162
95 | CGAGAGGC | -0.226
96 | CGCTAGAA | -0.194
97 | ATGGCGGG | -0.189
98 | ATGCGCTC | -0.0659
99 | ACACCTTA | 0.12
100 | TGATTCCA | 0.0648

Row | Sequence | PBM E-score
101 | ACATAAGA | 0.263
102 | ATTGTCGA | 0.026
103 | AATGCAGG | 0.0163
104 | CACATGTC | -0.0785
105 | ATCACGAC | 0.106
106 | CTGATCAG | -0.0835
107 | AACAATAG | -0.0656
108 | CGTATCAA | 0.0732
109 | GCACTTGA | 0.0821
110 | AGATTCTC | 0.0378
111 | CAATTCCG | -0.0561
112 | GACAGACC | -0.0957
113 | AACAGACA | 0.0199
114 | AGATGCAA | -0.0674
115 | AACAGCAG | -0.06
116 | ATTAAAAC | 0.213
117 | GCGCCAAC | 0.0978
118 | CGCGGGAG | -0.295
119 | TCTTCTCA | -0.0405
120 | ACCAGAGT | -0.209
121 | AGAGTCCT | -0.343
122 | GATCCTGC | -0.187
123 | CCCGAAGC | -0.201
124 | TACTGCCA | -0.125
125 | CACTTATG | 0.202

Row | Sequence | PBM E-score
126 | GACCCAGA | -0.059
127 | AGTGTACC | -0.245
128 | CCGATGAA | 0.0447
129 | TAGCCCGA | -0.177
130 | GCCGGCGC | 0.0813
131 | CTGGTTCC | -0.0459
132 | CTTTTTTC | 0.0653
133 | AGTGCGCA | -0.0548
134 | CAGGAGCC | -0.208
135 | ACTACGAT | 0.16
136 | ATGCGCCG | 0.108
137 | AGGTTGGC | -0.197
138 | GTGGCACA | -0.0556
139 | AGGAATCG | -0.0847
140 | CCGAGCGG | -0.178
141 | AGCCTCAG | -0.144
142 | GTCATTTA | 0.368
143 | CATGGTGC | -0.0706
144 | ACTTAGGG | -0.111
145 | CGGTTTGC | -0.148
146 | AAAGATTG | -0.0706
147 | CTGAATCC | 0.0148
148 | GGGCGGCA | -0.0996
149 | CGTGGTGC | -0.177
150 | ATTGGTGA | 0.17

Row | Sequence | PBM E-score
151 | GGATGAGA | -0.14
152 | GAGTTCAA | 0.00704
153 | CCACATGC | -0.0181
154 | ATTACACA | 0.318
155 | AGGCGATC | 0.107
156 | AAGATCCC | -0.186
157 | ACCGCGAT | 0.0943
158 | AAGACTGC | -0.128
159 | ACACAGCA | 0.082
160 | TAAATAGA | 0.115
161 | AGCGACTG | -0.0304
162 | CAGGAGCA | -0.099
163 | GCGGCCGA | 0.0546
164 | CATCGTCC | 0.14
165 | ATCACACG | 0.21
166 | ATTCTGAA | 0.0278
167 | CGGTTTGA | 0.0706
168 | CACCGCGC | 0.122
169 | AAGTTTAG | 0.0595
170 | AGGGTTTG | -0.0896
171 | GAGCAGAA | -0.0753
172 | CGCGCCTA | 0.202
173 | ACTTGGAT | -0.00239
174 | GGATAGGA | -0.235
175 | TGAGTAAA | 0.0371

Row | Sequence | PBM E-score
176 | ACAAGGCG | 0.223
177 | TCGCGCAA | 0.15
178 | TTAAATAA | 0.18
179 | CGTGGAGC | -0.156
180 | CAGGAATG | 0.0203
181 | ATCCGTAA | 0.0347
182 | CAACACTA | 0.104
183 | AACACATT | 0.0628
184 | AGTTGTCG | 0.0536
185 | GAAATGGA | 0.0199
186 | ACTATGCT | 0.00498
187 | AACTCGGG | -0.181
188 | AGATGTCG | -0.143
189 | ACCCGCGA | 0.0243
190 | CATGGTCG | -0.104
191 | GGCAACCC | -0.283
192 | AGGCGGCA | 0.119
193 | CCTAAGAC | -0.191
194 | ATAACCGG | -0.174
195 | AGACTATG | -0.102
196 | ATGAGTTC | -0.0692
197 | GTATTATA | 0.243
198 | AATATAGT | 0.256
199 | ATATGAAA | 0.182
200 | ATAATTGG | -0.0395

Row | Sequence | PBM E-score
201 | TATCAGAA | 0.146
202 | CTGCAGTC | -0.237
203 | TCCGACCA | -0.191
204 | AAATTACC | 0.199
205 | AGAGTAGC | -0.0589
206 | GAGAAAAC | 0.0868
207 | AAAAAAAT | 0.244
208 | TGGTAACA | 0.125
209 | GAAAACGA | 0.0922
210 | CTCAGAGC | -0.115
211 | CGAGCGGA | -0.0645
212 | CAGTAATA | 0.277
213 | CAATGCAC | 0.0118
214 | GGGACTAC | -0.309
215 | AATATGCC | 0.0584
216 | CTTGGTAC | 0.0907
217 | CTTTTCAC | 0.11
218 | CTGATTAA | 0.161
219 | AGAGGCTC | -0.28
